The supplement of paper PMC10126150
Values marked as one replicate rest on one cluster of the flow cell; about a third of the high ones do not repeat.

System: ATP
Experiment: switch fluorescence ratio, 500 uM ATP over buffer (Cy3 cluster intensity, sum of 5 cycles each) (fold (ratio)); higher = stronger signal-on switching upon ATP binding; sequences stand for … in TCGTCGGCAGCGTCAGATGTGTATAAGAGACAGTTTTTTTTTTTTTTTTTTTTTTTTT…TC
Details: aptamer strand: ATP DNA aptamer (quencher-CACCTGGGGGAGTATTGCGGAGGAAGG + anchor), 100 nM annealed; ATP concentration: 500 uM; one replicate
In short: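 Cy3-labelled switching-strand clusters on a modified Illumina MiSeq flow-cell were annealed to 100 nM quencher-labelled ATP aptamer, imaged in selection buffer, then imaged after 15 min with 500 uM ATP at 22 °C. Five buffer/ATP cycles ran, with NaOH stripping and re-annealing between them. The fluorescence ratio is summed target-cycle over summed buffer-cycle Cy3 intensity per cluster, averaged per switch-domain sequence. Clusters outside 100-1000 RFU were excluded.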
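Also: ATP exposure 15 min at 22 °C before imaging.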

Row | Sequence | switch fluorescence ratio
1 | CATTCGGCAG | 1.13
2 | TTGCCTTGGG | 0.988
3 | AAAAGGGAAC | 1.01
4 | ATGGCGCCGC | 1.03
5 | TGGGGCCGTT | 0.989
6 | CAACAGTCCT | 1.06
7 | GTTACATGGA | 1
8 | TCCAGCCGCG | 1.47
9 | ACGATCGATT | 1.03
10 | CGGATGTTTG | 1.03
11 | TTTCCATGGG | 1.02
12 | ACCCCTTGGT | 1.1
13 | CGTCAGGTTT | 3.66
14 | GAGTAAACCT | 2.83
15 | ACGCGACGGC | 1.17
16 | TTATGCTGAC | 1.04
17 | GAGCGTGGCC | 1.02
18 | GGCGATATTA | 0.998
19 | AGTTAGTAGC | 0.963
20 | GAAAGTACGC | 1.19
21 | AGCTTCGGTG | 1.03
22 | CCAGAGTGGC | 1.34
23 | AGGGTATCCC | 0.994

Row | Sequence | switch fluorescence ratio
24 | CTGGCCGGAC | 1.06
25 | TCGCCTGCCA | 1.08
26 | AGGTAGCGGG | 1.03
27 | AGGGAGCGTA | 1.05
28 | CACAGGTATC | 1.05
29 | AATTCGAAGG | 0.993
30 | GTATCATTTA | 0.955
31 | AGGTCCTAGA | 0.982
32 | GGTTGAGAGG | 1.01
33 | GAACGCGGTC | 1.05
34 | TCCTGAGCCG | 0.989
35 | GCTCGTCTTG | 0.956
36 | TCGTCGAAGG | 1.03
37 | CGTAAAGGTT | 1.01
38 | CGCAGTCTGA | 0.995
39 | GTGCAAGTTT | 1.03
40 | CGAGGTCCCA | 0.981
41 | TCTATTTTGC | 1
42 | GCGGTATTGT | 0.986
43 | CCCAAAAATT | 1.06
44 | ACACTTCTAA | 1.03
45 | AGTATCCGTT | 0.973
46 | TAGTCGGGCT | 0.938

Row | Sequence | switch fluorescence ratio
47 | TTTTACGGCG | 1.05
48 | CACGTTTTAA | 1.04
49 | TTGGAAGCAA | 1.01
50 | TAGTGTAGAG | 1.04
51 | TCGCGCTGGG | 1.03
52 | CTTTCGTTAG | 0.978
53 | GCGCAATTCC | 3.05
54 | GAGTGCCGAA | 1.02
55 | TAGGAGACAG | 0.984
56 | ATGGCCGTAA | 1.01
57 | GAGCCAGCCA | 1.01
58 | GTCACACCA | 1.05
59 | TATAGCACGT | 1.07
60 | TACGGACTGG | 1.12
61 | AAGGGTCGGC | 0.952
62 | GGGTCGGCTG | 0.994
63 | TGCCCCGTGC | 1.36
64 | TGCGACCTCC | 1.94
65 | CGTAGGTTGG | 1.02
66 | ATTTCGATAA | 0.977
67 | ATATTATGTC | 1.08
68 | CATTTCGGAC | 1.06
69 | GTGGCCTCGT | 1.03

Row | Sequence | switch fluorescence ratio
70 | GCGTTATGGG | 0.988
71 | GCGTGGAGAC | 1.11
72 | GAACCGACGG | 1.08
73 | TTATGCGGAA | 1.02
74 | CCTGACTAAT | 1.1
75 | ATCCGTGCGG | 1.01
76 | ATCGGGGAAC | 1
77 | ATGGATTCTC | 1.01
78 | GTGAGGCTTG | 0.97
79 | CTGGATGTGT | 0.975
80 | TACAGGTAAT | 1.02
81 | CGCACTTTGC | 1.06
82 | CTCTCCGACT | 1.3
83 | TTATCCCAAT | 1.13
84 | TAGGGTAATG | 0.944
85 | AGTTATCCGC | 1.15
86 | AGGTTGGTGT | 0.987
87 | GGAGTTGGTC | 1.03
88 | GGCTTGCAAG | 1.05
89 | AGGTTCGGCC | 0.969
90 | AAATTCCTGG | 1.01
91 | ACGGAGGAAC | 1.02
92 | ACAGCGACGC | 1.02

Row | Sequence | switch fluorescence ratio
93 | AAAGCGGTAA | 1.07
94 | GGTATCTGGG | 1.02
95 | GTTACTGATT | 1.04
96 | ACAAGATCTG | 0.987
97 | AAGGGACACT | 1.02
98 | AGTGGACAC | 1.01
99 | ACAGGAGATT | 1.05
100 | ATGCATTTGA | 0.998
101 | CTGCACGAGC | 1.11
102 | CCACGTAAAT | 1.31
103 | AGCTGTACAG | 1.02
104 | AATCTTTA | 0.984
105 | CGACCTAGGG | 0.977
106 | AGGCTCCCGG | 1.02
107 | TATATCGTGT | 1
108 | GGTGCCAGGG | 1.04
109 | AGACGGGCT | 1.03
110 | CTGTTATTCG | 0.927
111 | CGGCTAAGTT | 0.96
112 | GATATAATCA | 0.991
113 | CTGGCCGAGG | 1.02
114 | TTCAAATACG | 1.02
115 | CTGGCCTGCA | 1.04

Row | Sequence | switch fluorescence ratio
116 | TTAAGGTACA | 1.11
117 | ATACGTCTGC | 0.988
118 | CACCATCAAA | 1
119 | TTATGCGACC | 1.23
120 | TATACTAATT | 1.03
121 | GAAGGTACGT | 0.975
122 | TAGTTCCCGG | 0.963
123 | CATACTTG | 1
124 | GACGTTGTTC | 1.36
125 | AACAAGCGAT | 0.997
126 | ACTCGCGCGT | 1.03
127 | GCGGCAGCGT | 0.966
128 | GTGTTTCTAG | 0.963
129 | AAAGCCTAAA | 0.96
130 | CAATACACTG | 1.18
131 | AGCCGTCTGC | 0.891
132 | TTTCATGA | 0.993
133 | CTAAATCCTG | 0.962
134 | ACTACGACAG | 1.1
135 | AGTCGGAAAT | 0.97
136 | GAGTAGAAGG | 0.991
137 | GAATTCCTCG | 1.25
138 | TAGCAAATAA | 1.42

Row | Sequence | switch fluorescence ratio
139 | AGGAGGGAAA | 1.01
140 | GGGTAAGATT | 1.01
141 | TGGCCTGGTT | 1.05
142 | CCATATTATC | 0.997
143 | GGATACGGGT | 0.998
144 | TCCCGTTGC | 2.8
145 | TACAGAAGCC | 1.05
146 | CCAGCTGGGC | 1.06
147 | ATAGAACCTC | 1.06
148 | CTCAGCGCGA | 1.58
149 | TTGAGCGCTT | 1.02
150 | CTTGCCAGTT | 1
151 | GCATGCGTCG | 1.01
152 | ACGGATAAG | 1.09
153 | GGAGAATAAG | 1.01
154 | TTATGTCCGA | 1.01
155 | AGACTGTGC | 1
156 | TAGCAGGGAT | 1.29
157 | TTGACAGAGG | 1.01
